Experimental data as given in PubChem BioAssay AID624417 (National Center for Advancing Translational Sciences (NCATS), 2012).
The whole screen tested about 410,000 compounds, of which about 6,400 (1.6%) were called active. Inconclusive results, whose numbers are uncertain, are shown with a selection of clear calls. Calls come from the whole dose curve; as a rule, active = well fitted inhibition curve with a large enough effect; inconclusive = small, poorly fitted or top-dose-only effect; inactive = no such curve, though single readings can be large or run the other way. Potencies of inconclusive entries are left out as doubtful fits.

The compounds below were run against Glucagon-like peptide 1 receptor (Homo sapiens) (UniProt P43220) (assay: qHTS of GLP-1 Receptor Inverse Agonists (Inhibition Mode)). Settings: HEK293 GLP-1R CRE-luciferase, luminescence, 24 h, GLP-1R form is constitutively active; series mostly up to 38.3 µM.
UniProt P43220, sequence (P43220 whole entry, looked up): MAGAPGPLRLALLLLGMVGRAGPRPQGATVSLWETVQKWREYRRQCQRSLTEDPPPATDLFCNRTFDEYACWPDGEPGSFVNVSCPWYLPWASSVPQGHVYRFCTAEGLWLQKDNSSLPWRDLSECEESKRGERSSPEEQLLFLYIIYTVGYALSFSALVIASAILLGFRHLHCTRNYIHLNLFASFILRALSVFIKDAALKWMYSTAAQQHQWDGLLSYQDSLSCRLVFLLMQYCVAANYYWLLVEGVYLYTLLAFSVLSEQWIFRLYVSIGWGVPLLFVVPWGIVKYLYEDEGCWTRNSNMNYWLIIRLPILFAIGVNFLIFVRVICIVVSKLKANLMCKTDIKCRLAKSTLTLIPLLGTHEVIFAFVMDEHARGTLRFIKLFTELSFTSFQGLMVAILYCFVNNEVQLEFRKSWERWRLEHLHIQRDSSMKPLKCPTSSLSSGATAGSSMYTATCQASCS
Method in brief: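 Using stably transfected HEK293 (constitutively active GLP-1R, cAMP-luciferase reporter), compounds were incubated 24 hr and luciferase measured by luminescence.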
Note: nearly all actives have a fitted effect of over 55% in size.
Potency is the fitted concentration of half-maximal effect; tags give direction and shape of the fitted curve.

Question: How did the Potency turn out when `Cc1ccc(C(=O)Nn2c(N)c(S(=O)(=O)c3ccc(C)cc3)c3nc4ccccc4nc32)cc1` was run?
Answer: inconclusive [inhibitor, single point]

Question: How did the Potency turn out when `Cc1onc(-c2c(F)cccc2Cl)c1C(=O)NCc1ccc(F)cc1` was run?
Answer: inconclusive [inhibitor, single point]

Question: For `O=[N+]([O-])c1cccc(C(=S)N2CCN(c3ccccc3F)CC2)c1`, which Potency is on record?
Answer: inconclusive [inhibitor, single point]

Question: `COc1ccc(CNC(=S)Nc2ccc(Br)cc2)cc1` was tested. Which Potency did it give?
Answer: inconclusive [inhibitor, single point]

Question: With `COc1cccc(C(C)(O)c2nc(-c3ccc(C)c(C)c3)cs2)c1` (configuration not stated) as the compound, how does the Potency read?
Answer: inconclusive [inhibitor, single point]

Question: For `OCCN(CCO)CC(O)CN1c2ccccc2Sc2ccccc21` (configuration not stated), which Potency is on record?
Answer: inconclusive [inhibitor, single point]

Question: For `Cc1ccc(OCCCCNC(C)(C)C)c([N+](=O)[O-])c1`, which Potency is on record?
Answer: inconclusive [inhibitor, partial curve, poor fit]

Question: How did the Potency turn out when `CC1Cc2ccccc2N1C(=O)/C=C/c1cccc(F)c1` (configuration not stated) was run?
Answer: inconclusive [inhibitor, partial curve, poor fit]

Question: For `CC(C)c1ccc(OCC(O)Cn2cnc3ccccc32)cc1` (configuration not stated), which Potency is on record?
Answer: inconclusive [inhibitor, single point]

Question: `Cc1cccc(N2CCN(C(=O)CSc3ccc4c(c3)OCCO4)CC2)c1C` was tested. Which Potency did it give?
Answer: inconclusive [inhibitor, partial curve, poor fit]

Question: `C=C1CCC(N(O)c2cc(C)on2)C(=C)CCC2C1CC2(C)C` (configuration not stated) was tested. Which Potency did it give?
Answer: inconclusive [inhibitor, partial curve, poor fit]

Question: Which Potency does the source give for `N/C(=N\OC(=O)CC1CCCCC1)c1cccc(Br)c1` here?
Answer: inconclusive [inhibitor, partial curve, poor fit]

Question: How did the Potency turn out when `CCOc1ccc(C(=O)NCCc2ccc3c(c2)OCCO3)cc1` was run?
Answer: inconclusive [inhibitor, single point]

Question: Which Potency does the source give for `Cc1cc(/C=N/NC(=O)c2cc3ccccc3o2)c(C)n1C` here?
Answer: inconclusive [inhibitor, partial curve, poor fit]

Question: How did the Potency turn out when `COCCCNC(=S)NCCc1ccc(F)cc1` was run?
Answer: inconclusive [inhibitor, single point]

Question: `Cc1cccc(C(=O)NC2CCN(C(=O)NCc3ccccc3)CC2)c1` was tested. Which Potency did it give?
Answer: inactive

Question: Which Potency does the source give for `COc1ccc2nc(NC(=O)C3CC(=O)N(c4ccccc4)C3)sc2c1` (configuration not stated) here?
Answer: inconclusive [inhibitor, partial curve, poor fit]
